Source: the supplement of paper PMC7125110
± gives the standard error. Variants at the background level are over-represented here.

B1: glmS ribozyme (parent)
chain: AUAAAAGCGCCAGAACUACAGAAAUGUAGUUGACGAGGAGGAGGUUUAUCGAAUUUUCGGCGGAUGCCUCCAAA

Tests used:
Conditions in all cases: with glucosamine-6-phosphate
[1] = variants of: B1; assay: self-cleavage kobs at 40 uM GlcN6P; higher = faster cleavage; RNA array
Procedure, shortened: (§1)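 Barcoded glmS ribozyme variants on sequenced MiSeq chips were transcribed in situ by E. coli RNA polymerase and tracked through a hybridised Cy3 probe at 37 °C. Glucosamine-6-phosphate (40 μM to 10 mM) in HEPES/KCl/Mg(OAc)2 buffer was flowed in, and tiles were imaged over ~14 h. Signals were normalised to baseline and to non-cleaving reference variants; per-tile medians were fit to one- or two-exponential decays to give kobs. kcat and KM came from weighted Michaelis–Menten fits across concentrations.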

[2] = variants of: B1; assay: self-cleavage kobs at 640 uM GlcN6P; higher = faster cleavage; RNA array
Procedure, shortened: as §1

[3] = variants of: B1; assay: self-cleavage kobs at 160 uM GlcN6P; higher = faster cleavage; RNA array
Procedure, shortened: as §1

[4] = variants of: B1; assay: self-cleavage kobs at 2500 uM GlcN6P; higher = faster cleavage; RNA array
Procedure, shortened: as §1

[5] = variants of: B1; assay: self-cleavage kobs at 10000 uM GlcN6P; higher = faster cleavage; RNA array
Procedure, shortened: as §1

Row | Variant | self-cleavage kobs at 40 uM GlcN6P [1] [s⁻¹] | self-cleavage kobs at 640 uM GlcN6P [2] [s⁻¹] | self-cleavage kobs at 160 uM GlcN6P [3] [s⁻¹] | self-cleavage kobs at 2500 uM GlcN6P [4] [s⁻¹] | self-cleavage kobs at 10000 uM GlcN6P [5] [s⁻¹]
1 | C8U G66A | < 1e-05 | < 1e-05 | < 1e-05 | – | –
2 | C8A G43A | < 1e-05 | < 1e-05 | < 1e-05 | < 1e-05 | –
3 | G7U A39U | < 1e-05 | – | < 1e-05 | – | < 1e-05
4 | C8G G29C | < 1e-05 | < 1e-05 | < 1e-05 | < 1e-05 | < 1e-05
5 | G7U G60U U65A | < 1e-05 | – | – | – | < 1e-05
6 | G7U C70G C71G | 4.02e-05 ± 2e-05 | – | – | – | –
7 | G7U G38C | < 1e-05 | < 1e-05 | – | – | < 1e-05
8 | C8A A48C C67U | < 1e-05 | – | – | – | < 1e-05
9 | G7U U55C | < 1e-05 | < 1e-05 | – | < 1e-05 | < 1e-05
10 | G7C C67U | < 1e-05 | < 1e-05 | < 1e-05 | < 1e-05 | < 1e-05
11 | C8A U47C | < 1e-05 | < 1e-05 | – | < 1e-05 | < 1e-05
12 | C8A U47A | < 1e-05 | < 1e-05 | < 1e-05 | < 1e-05 | < 1e-05
13 | G7U G37C A39C G62C | < 1e-05 | – | – | – | –
14 | C8G G9U G40U A42C G43C | < 1e-05 | – | – | – | < 1e-05
15 | G7C C11A G40A | < 1e-05 | – | – | – | –
16 | C8G A48U C68A | < 1e-05 | – | – | – | –
17 | G7C A52C G60A | < 1e-05 | – | – | – | < 1e-05
18 | G9C G43A | < 1e-05 | – | – | – | < 1e-05
19 | C8G G13U U30C G43U | < 1e-05 | – | – | – | –
20 | G9A A42C A53C | < 1e-05 | – | – | – | < 1e-05
21 | C8G G32A G66C C71A | < 1e-05 | – | < 1e-05 | – | < 1e-05
22 | C8G A14C C68U | < 1e-05 | – | – | – | –
23 | G7U U31G C70U | < 1e-05 | – | – | – | –
24 | C8G G38C | < 1e-05 | < 1e-05 | < 1e-05 | < 1e-05 | < 1e-05
25 | G7U U45G C71A | < 1e-05 | – | – | < 1e-05 | < 1e-05

Row | Variant | self-cleavage kobs at 40 uM GlcN6P [1] [s⁻¹] | self-cleavage kobs at 640 uM GlcN6P [2] [s⁻¹] | self-cleavage kobs at 160 uM GlcN6P [3] [s⁻¹] | self-cleavage kobs at 2500 uM GlcN6P [4] [s⁻¹] | self-cleavage kobs at 10000 uM GlcN6P [5] [s⁻¹]
26 | G9C U31C U49G C67G | < 1e-05 | < 1e-05 | – | – | < 1e-05
27 | C8U G40U C61A G62A | < 1e-05 | – | – | – | –
28 | G7C G44C | < 1e-05 | < 1e-05 | – | – | –
29 | C8G C11U | < 1e-05 | < 1e-05 | < 1e-05 | < 1e-05 | < 1e-05
30 | G9C C70U | < 1e-05 | < 1e-05 | < 1e-05 | < 1e-05 | < 1e-05
31 | C8A A33C A36C A42U C58G | < 1e-05 | < 1e-05 | – | < 1e-05 | –
32 | G7U A48U G60C | < 1e-05 | – | – | – | –
33 | G7A G37C C50A A52U | < 1e-05 | < 1e-05 | < 1e-05 | – | –
34 | G9C C10G G43U | < 1e-05 | < 1e-05 | < 1e-05 | < 1e-05 | < 1e-05
35 | G7U A12U G32A C68U | < 1e-05 | < 1e-05 | – | – | < 1e-05
36 | G7C G13C G29U U69A | < 1e-05 | – | – | – | < 1e-05
37 | G7C U56G | < 1e-05 | < 1e-05 | < 1e-05 | < 1e-05 | < 1e-05
38 | G7C U30A | < 1e-05 | < 1e-05 | < 1e-05 | < 1e-05 | < 1e-05
39 | G9A G35C | < 1e-05 | < 1e-05 | < 1e-05 | – | –
40 | C8U C11U G13U C71U | < 1e-05 | – | – | < 1e-05 | < 1e-05
41 | G9A A53G G59C | < 1e-05 | < 1e-05 | < 1e-05 | < 1e-05 | < 1e-05
42 | G9C C58U | < 1e-05 | < 1e-05 | < 1e-05 | < 1e-05 | < 1e-05
43 | G7C C11U G62U | < 1e-05 | – | – | – | –
44 | G9A C58U G60U | < 1e-05 | – | – | – | –
45 | C8A A15G G60A | < 1e-05 | < 1e-05 | – | < 1e-05 | –
46 | C8G C34U U55G | < 1e-05 | – | – | – | –
47 | G7U U54G C70G C71U | 7.3e-05 ± 2.8e-05 | – | – | – | 5.65e-05 ± 2.5e-05
48 | C8U C67U | < 1e-05 | < 1e-05 | < 1e-05 | < 1e-05 | –
49 | G9C C67A C70A | < 1e-05 | – | – | – | < 1e-05
50 | G9A G40U C50U A53U | < 1e-05 | – | – | – | –

Row | Variant | self-cleavage kobs at 40 uM GlcN6P [1] [s⁻¹] | self-cleavage kobs at 640 uM GlcN6P [2] [s⁻¹] | self-cleavage kobs at 160 uM GlcN6P [3] [s⁻¹] | self-cleavage kobs at 2500 uM GlcN6P [4] [s⁻¹] | self-cleavage kobs at 10000 uM GlcN6P [5] [s⁻¹]
51 | C8G G9U | < 1e-05 | < 1e-05 | – | – | –
52 | C8A A33G G44C | < 1e-05 | – | – | – | < 1e-05
53 | G9A G37U G41C U54C | < 1e-05 | – | – | – | –
54 | G9C A15G A18C G35U G38A G51A U65G | < 1e-05 | < 1e-05 | – | – | –
55 | G9A G32U | < 1e-05 | < 1e-05 | < 1e-05 | < 1e-05 | < 1e-05
56 | C8A G9U C10U G44A | < 1e-05 | – | – | – | < 1e-05
57 | C8A C11G U56G | < 1e-05 | < 1e-05 | < 1e-05 | < 1e-05 | –
58 | G7C C11G U54C | < 1e-05 | < 1e-05 | < 1e-05 | < 1e-05 | < 1e-05
59 | C8U U55G | < 1e-05 | < 1e-05 | – | < 1e-05 | –
60 | G7U U31C C50A | < 1e-05 | – | – | – | < 1e-05
61 | C8U C11G C67U | < 1e-05 | – | – | – | –
62 | C8A A42C U47G C61U U69C | < 1e-05 | < 1e-05 | – | < 1e-05 | –
63 | G7U A53G | < 1e-05 | < 1e-05 | < 1e-05 | < 1e-05 | < 1e-05
64 | C8G U47C | < 1e-05 | < 1e-05 | < 1e-05 | < 1e-05 | < 1e-05
65 | G9C G32U | < 1e-05 | < 1e-05 | < 1e-05 | – | < 1e-05
66 | G9A G40A | < 1e-05 | < 1e-05 | < 1e-05 | < 1e-05 | –
67 | G7A G29C U57G C70G | 0.000158 ± 7.6e-05 | – | – | – | 0.000678 ± 0.00017
68 | G7C G32A A36G C70G C71A | < 1e-05 | – | – | – | –
69 | G9A G41U | < 1e-05 | < 1e-05 | < 1e-05 | < 1e-05 | –
70 | C8U C10A A64C | < 1e-05 | < 1e-05 | < 1e-05 | – | –
71 | C8G A39U C67A | < 1e-05 | – | – | – | –
72 | G9A U45G | < 1e-05 | < 1e-05 | – | – | < 1e-05
73 | G9A U45C | < 1e-05 | – | < 1e-05 | – | < 1e-05
74 | C8U C16A | < 1e-05 | – | – | – | –
75 | C8A G29C G35A C67G | < 1e-05 | – | – | – | –

Row | Variant | self-cleavage kobs at 40 uM GlcN6P [1] [s⁻¹] | self-cleavage kobs at 640 uM GlcN6P [2] [s⁻¹] | self-cleavage kobs at 160 uM GlcN6P [3] [s⁻¹] | self-cleavage kobs at 2500 uM GlcN6P [4] [s⁻¹] | self-cleavage kobs at 10000 uM GlcN6P [5] [s⁻¹]
76 | C8G U30G G60A | < 1e-05 | – | – | – | –
77 | C8G C61A G66C | < 1e-05 | – | – | < 1e-05 | –
78 | G9A G38C A42U C68G | < 1e-05 | < 1e-05 | – | – | –
79 | G9C A52G | < 1e-05 | – | – | – | –
80 | G9A G13A A14C C61A | < 1e-05 | – | – | – | < 1e-05
81 | C8A C11G U46G | < 1e-05 | – | – | – | < 1e-05
82 | C8U A53U G60U | < 1e-05 | – | – | – | –
83 | G7U G29C A33C U45G C68U | < 1e-05 | – | – | – | < 1e-05
84 | G9C A14U A52C | < 1e-05 | – | – | – | –
85 | G9C G38A | < 1e-05 | < 1e-05 | < 1e-05 | – | –
86 | C8G A64U | < 1e-05 | < 1e-05 | < 1e-05 | < 1e-05 | < 1e-05
87 | G7C U56A G59U G62C | < 1e-05 | – | – | – | < 1e-05
88 | G9A G37U U46C U56A G60C | < 1e-05 | – | – | – | < 1e-05
89 | G9A U65A | < 1e-05 | – | – | < 1e-05 | –
90 | G7U G40C | < 1e-05 | < 1e-05 | – | < 1e-05 | < 1e-05
91 | C8A C11G A12G C68U | < 1e-05 | – | – | – | –
92 | G9C U45G | < 1e-05 | < 1e-05 | < 1e-05 | – | –
93 | C8A C58U | < 1e-05 | – | – | – | –
94 | G9A A14C C34A G60A | < 1e-05 | – | – | – | < 1e-05
95 | G9C U55A | < 1e-05 | – | < 1e-05 | < 1e-05 | < 1e-05
96 | G7U A33U U54A | < 1e-05 | – | – | – | < 1e-05
97 | G9C C11U A52C | < 1e-05 | – | – | – | –
98 | G7U A42C | < 1e-05 | < 1e-05 | < 1e-05 | < 1e-05 | < 1e-05
